# From paper PMC4336329 (PLoS ONE, 2015)
# Among all 310,000 compounds or so, about 2,200 (0.71%) showed an effect of 50% or more. Effects have a minus sign here. This is one part of the list.
# Target: human ether-à-go-go-related gene (hERG) potassium channel (human, UniProt Q12809)
# Assay: primary screen, population patch clamp on CHO cells stably expressing hERG
# Chain of human ether-à-go-go-related gene (hERG) potassium channel (Q12809 whole entry, looked up): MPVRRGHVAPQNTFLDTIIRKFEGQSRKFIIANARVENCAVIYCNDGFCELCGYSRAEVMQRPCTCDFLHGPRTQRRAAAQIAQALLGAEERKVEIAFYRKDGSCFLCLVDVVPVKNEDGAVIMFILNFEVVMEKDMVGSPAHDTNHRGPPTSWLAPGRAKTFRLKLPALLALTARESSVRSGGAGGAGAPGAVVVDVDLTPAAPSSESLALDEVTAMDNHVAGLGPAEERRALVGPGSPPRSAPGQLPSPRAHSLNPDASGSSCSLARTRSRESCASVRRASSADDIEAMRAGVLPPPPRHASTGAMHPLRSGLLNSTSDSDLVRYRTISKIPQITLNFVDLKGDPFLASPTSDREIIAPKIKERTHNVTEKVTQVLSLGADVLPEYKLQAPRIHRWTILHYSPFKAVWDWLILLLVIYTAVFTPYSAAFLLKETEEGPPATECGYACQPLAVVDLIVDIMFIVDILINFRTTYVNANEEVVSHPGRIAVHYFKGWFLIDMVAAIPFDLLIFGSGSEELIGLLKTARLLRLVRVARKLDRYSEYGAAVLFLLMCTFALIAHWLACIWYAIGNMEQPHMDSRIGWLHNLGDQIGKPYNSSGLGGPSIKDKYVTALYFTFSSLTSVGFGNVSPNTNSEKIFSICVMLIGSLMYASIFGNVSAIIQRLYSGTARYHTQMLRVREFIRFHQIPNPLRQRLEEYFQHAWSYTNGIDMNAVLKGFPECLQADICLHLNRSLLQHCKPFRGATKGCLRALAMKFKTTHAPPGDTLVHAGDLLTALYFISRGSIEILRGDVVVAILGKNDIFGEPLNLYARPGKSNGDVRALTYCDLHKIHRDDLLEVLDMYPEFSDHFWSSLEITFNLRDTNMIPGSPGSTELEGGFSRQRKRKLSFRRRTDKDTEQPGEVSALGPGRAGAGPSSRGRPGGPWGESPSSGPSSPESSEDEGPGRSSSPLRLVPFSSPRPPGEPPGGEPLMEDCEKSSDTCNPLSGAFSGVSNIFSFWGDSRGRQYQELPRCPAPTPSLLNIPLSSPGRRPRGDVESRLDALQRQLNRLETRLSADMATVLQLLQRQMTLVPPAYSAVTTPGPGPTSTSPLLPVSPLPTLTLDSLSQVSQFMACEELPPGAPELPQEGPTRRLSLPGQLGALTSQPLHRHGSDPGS
row,Structure (SMILES),"hERG current change (%, negative = inhibition) at 1uM"
1,COc1ccc2cnn(-c3ccc(C)cc3)c(=O)c2c1OC,15%
2,COc1cc([N+](=O)[O-])ccc1NC(=O)CCCOc1ccccc1,2.59%
3,O=[N+]([O-])c1cccc(-c2cnc3ccccc3n2)c1,3.59%
4,O=C(O)C1C2C=CC(C2)C1C(=O)NC1CCN(Cc2ccccc2)CC1 (stereo not drawn),7.34%
5,O=C(Nc1cccc(F)c1)Nc1ccc2c(c1)CCC2,10.8%
6,CC(=O)N1C(=O)NC2=C(C(=O)CCC2)C1c1cccc([N+](=O)[O-])c1 (stereo not drawn),20.6%
7,CC(C)NC(=O)N1CCCN(c2nc3ccc(Cl)cc3s2)CC1,-5.36%
8,O=C(CSc1ccc(Br)cc1)Nc1ccccc1Oc1ccccc1,8.88%
9,CNC(=O)N(O)C1N(/N=C/c2c(F)cccc2Cl)C(=S)SC1(C)C (stereo not drawn),15.7%
10,Cc1ccc(C(=O)N/C(=C\c2ccc([N+](=O)[O-])cc2)C(=O)NCCc2ccccc2)cc1,-8.35%
11,CC(C)NS(=O)(=O)c1ccc(NC(=O)Cc2cccs2)cc1,19.3%
12,CC1CN(C(=O)c2ccc(OC3CCN(Cc4ccccn4)CC3)cc2)CCN1C (stereo not drawn),5.61%
13,COc1ccc(C(=O)N/C(=C\c2ccc3c(c2)OCO3)C(=O)NCCc2nc3ccccc3[nH]2)cc1,-0.285%
14,COc1ccc(NC(=O)C2Cc3cc(S(=O)(=O)N4CCCCC4)ccc3N2C(C)=O)cc1Cl (stereo not drawn),13.8%
15,CC(C(=O)Nc1cccc(S(=O)(=O)N2CCOCC2)c1)N1CCN(C)CC1 (stereo not drawn),-4.88%
16,O=C(NCc1ccc2c(c1)OCO2)C(=O)NCC1OCCN1S(=O)(=O)c1ccc(Cl)cc1 (stereo not drawn),4.08%
17,O=C1N=c2ccccc2=C1c1c(O)n(-c2cccc(F)c2)[nH]c1=O,6.7%
18,COCC(C)n1c(SCC(=O)NC(=O)Cc2ccccc2)nc2ccccc2c1=O (stereo not drawn),10.7%
19,CCC(C)NCCOc1cc(C)cc(C)c1C.O=C(O)C(=O)O (stereo not drawn),7.99%
20,COC(=O)c1cc(S(=O)(=O)N(C)Cc2ccco2)c[nH]1,8.26%
21,C=CCNC(=O)c1sc(SC)cc1-c1ccc(Cl)cc1,-8.83%
22,Cc1ccc(CC2SC(N)=NC2=O)cc1 (stereo not drawn),11.6%
23,CCOc1cc(C(c2c(O)nc(SC)[nH]c2=O)c2c(O)nc(SC)[nH]c2=O)ccc1O,16.4%
24,O=C(COC(=O)c1ccc(F)cc1)Nc1cc(S(=O)(=O)N2CCOCC2)ccc1N1CCCC1,-4.33%
